# Source: the supplement of paper PMC10126150
# Values marked as one replicate rest on one cluster of the flow cell; about a third of the high ones do not repeat.
# Test system: ATP
# Assay: switch fluorescence ratio, 500 uM ATP over buffer (Cy3 cluster intensity, sum of 5 cycles each) (fold (ratio)); higher = stronger signal-on switching upon ATP binding; sequences stand for … in TCGTCGGCAGCGTCAGATGTGTATAAGAGACAGTTTTTTTTTTTTTTTTTTTTTTTTT…TC
# Details: aptamer strand: ATP DNA aptamer (quencher-CACCTGGGGGAGTATTGCGGAGGAAGG + anchor), 100 nM annealed; ATP concentration: 500 uM; one replicate
# Procedure, shortened: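 After annealing to 100 nM quencher-labelled ATP aptamer, Cy3-labelled switching-strand clusters on a modified Illumina MiSeq flow-cell were imaged in selection buffer. A second image followed after 15 min with 500 uM ATP at 22 °C, and five such buffer/ATP cycles were done, each separated by NaOH stripping and re-annealing. The fluorescence ratio, averaged per switch-domain sequence, is summed target-cycle over summed buffer-cycle Cy3 intensity per cluster, with clusters outside 100-1000 RFU excluded.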
# 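Further: ATP exposure 15 min at 22 °C before imaging.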
sequence,measurement,value
AATCGGGATA,switch fluorescence ratio,0.971
TGCGAACCG,switch fluorescence ratio,0.983
TATTGGGAGC,switch fluorescence ratio,0.987
CCCTGCAACG,switch fluorescence ratio,1.8
GTCGCGAGGC,switch fluorescence ratio,1.37
AGTTTACTTA,switch fluorescence ratio,1
ATTATCACTT,switch fluorescence ratio,1.02
ATTAATATCT,switch fluorescence ratio,1.01
AGTTAGGGGG,switch fluorescence ratio,0.996
ACAGTGGCTT,switch fluorescence ratio,1.01
CTCTCAGGG,switch fluorescence ratio,1.08
CGTGGTGGA,switch fluorescence ratio,1.04
AAGGGCATGG,switch fluorescence ratio,1.02
TTGAATGTGG,switch fluorescence ratio,0.976
AATCTGCCAG,switch fluorescence ratio,0.994
ATGTTTAGGA,switch fluorescence ratio,1.07
CTGATGTTCA,switch fluorescence ratio,0.988
CCGGTATTGC,switch fluorescence ratio,2.23
GGGCCGAGTG,switch fluorescence ratio,0.947
CTGCTTTCTC,switch fluorescence ratio,1.15
CGGAGTGCGT,switch fluorescence ratio,1
TTGTATATT,switch fluorescence ratio,0.955
CCGGTAGCCA,switch fluorescence ratio,1.8
GAAGCTGTCA,switch fluorescence ratio,0.987
CCCCTAATAG,switch fluorescence ratio,1.88
ATTCCTATAA,switch fluorescence ratio,0.962
AGGGATAAGG,switch fluorescence ratio,0.957
GGGCCTGTCC,switch fluorescence ratio,1.03
TTCATCGTAC,switch fluorescence ratio,1.21
ACCCACTCCC,switch fluorescence ratio,1.53
TCGCATGAAA,switch fluorescence ratio,0.996
CTGGAACGCA,switch fluorescence ratio,1.44
TGGCTTTCTT,switch fluorescence ratio,1.05
TAATAATGTT,switch fluorescence ratio,0.932
ACAACGGTGC,switch fluorescence ratio,1.24
GCCTGGGGGT,switch fluorescence ratio,0.997
TTCCATCTGA,switch fluorescence ratio,1.06
TACAAAATAG,switch fluorescence ratio,2.82
TCCGAGAGTT,switch fluorescence ratio,1.11
ACGGGGGTCG,switch fluorescence ratio,0.97
CTGTGGTTA,switch fluorescence ratio,0.972
CCTCATCGA,switch fluorescence ratio,1.95
TTTCAATTAT,switch fluorescence ratio,0.994
ACACGGGGCC,switch fluorescence ratio,1.05
TCGCATCCTA,switch fluorescence ratio,1.17
CTGTCCAGAA,switch fluorescence ratio,1.01
TTCCATCTAT,switch fluorescence ratio,1
GGGCGAGATA,switch fluorescence ratio,1
GGTAAGCCTC,switch fluorescence ratio,1.05
ATTTAACTAT,switch fluorescence ratio,1
TGTGAGTTA,switch fluorescence ratio,1.03
GTTTTGTTCG,switch fluorescence ratio,0.979
GGCCGTATCA,switch fluorescence ratio,0.977
TGTTAAGGCG,switch fluorescence ratio,1.12
GCAGTATGGC,switch fluorescence ratio,0.959
GCGTCACAAT,switch fluorescence ratio,1.03
GCAGATCTTA,switch fluorescence ratio,0.935
GAATATGTTT,switch fluorescence ratio,0.972
TCGAGGGAAA,switch fluorescence ratio,1.01
GCTAGTTCGG,switch fluorescence ratio,0.941
CACTATTGAT,switch fluorescence ratio,1
ACGAGGGGCC,switch fluorescence ratio,0.98
TGAGTTGAGC,switch fluorescence ratio,0.926
CAGAGGTCTT,switch fluorescence ratio,0.957
AGCACGTTGG,switch fluorescence ratio,1.02
ACGCTTACAG,switch fluorescence ratio,1.23
AATCAAAAGT,switch fluorescence ratio,1
ATCTTAAAGC,switch fluorescence ratio,1.01
AGTGCGGGCA,switch fluorescence ratio,0.973
TCAGCTGAGG,switch fluorescence ratio,1.04
CTAAATGTGC,switch fluorescence ratio,1.02
AGAGAAGCGA,switch fluorescence ratio,0.982
TCAGAAGGAG,switch fluorescence ratio,1
GGGATCACGG,switch fluorescence ratio,1.01
GGATTGGCCC,switch fluorescence ratio,0.992
GACAGAGCCG,switch fluorescence ratio,1.01
TGGTTACTCT,switch fluorescence ratio,0.993
GACCAAGATC,switch fluorescence ratio,1.16
CACCCCCTTG,switch fluorescence ratio,1.38
CGATACGCAG,switch fluorescence ratio,1.06
AGTGCTACTG,switch fluorescence ratio,0.98
GGAGATAATA,switch fluorescence ratio,1.03
TCATTAGATG,switch fluorescence ratio,0.968
GAGCGAAGCC,switch fluorescence ratio,0.964
ATGGCAGTAT,switch fluorescence ratio,0.995
GTAGTGTCGT,switch fluorescence ratio,1.01
AAAGGGATT,switch fluorescence ratio,0.994
AACGCATTAT,switch fluorescence ratio,2.44
GATTTTATCG,switch fluorescence ratio,1
ACTGCAGTTG,switch fluorescence ratio,1.02
TCACATATAA,switch fluorescence ratio,1.09
TTGCTCTGGT,switch fluorescence ratio,1.03
TTGGGAAACC,switch fluorescence ratio,1.07
GCTGTTTCA,switch fluorescence ratio,1.01
CACTTCCCCA,switch fluorescence ratio,1.26
CTCACTCTTC,switch fluorescence ratio,1.01
TAATCGGTTT,switch fluorescence ratio,0.977
AGATTTCTAT,switch fluorescence ratio,1.02
ATTACGCTGC,switch fluorescence ratio,1.38
TCCCTGAAGC,switch fluorescence ratio,1.07
AATAAATGCG,switch fluorescence ratio,0.999
TATTAAGC,switch fluorescence ratio,1
CACACGTTT,switch fluorescence ratio,1
GCATCTGGGC,switch fluorescence ratio,1.02
GTCGGCCAGG,switch fluorescence ratio,1.26
GGGATATATC,switch fluorescence ratio,1.02
AGGGTCGGCC,switch fluorescence ratio,1.04
AGCTTTTTCT,switch fluorescence ratio,1.1
AAAAGATACT,switch fluorescence ratio,1.06
GTTGGTGTTC,switch fluorescence ratio,0.978
CTCTCAATGA,switch fluorescence ratio,1.64
TATCACAGAA,switch fluorescence ratio,1.02
AAGTATTCAT,switch fluorescence ratio,0.967
GCTTTAAAGT,switch fluorescence ratio,1.03
GCTCTTCCAT,switch fluorescence ratio,0.996
CGCTCGCGCC,switch fluorescence ratio,1
TCGGGATATT,switch fluorescence ratio,1.06
GTTGTACAAT,switch fluorescence ratio,0.98
GACTTTCCCC,switch fluorescence ratio,1.15
CCTCATCCTT,switch fluorescence ratio,1.12
GATCTGCGT,switch fluorescence ratio,0.988
CGATACGCGA,switch fluorescence ratio,1.57
TATAACTCCC,switch fluorescence ratio,1.21
GGTGACTGCG,switch fluorescence ratio,0.996
GAAACTTTTA,switch fluorescence ratio,0.995
ACGATCTTCC,switch fluorescence ratio,2.73
TCATGAAAGA,switch fluorescence ratio,0.923
CAATTGTGTT,switch fluorescence ratio,1.07
AAGACGCTAC,switch fluorescence ratio,3.6
TCCCTGCTTG,switch fluorescence ratio,1.01
ACAGTAGTTG,switch fluorescence ratio,1.03
AATTTAGTGA,switch fluorescence ratio,0.9
ATCTCATGTT,switch fluorescence ratio,0.977
AACGGTCGTG,switch fluorescence ratio,0.963
CGAAACCGTA,switch fluorescence ratio,1.02
GAGGGATCCA,switch fluorescence ratio,0.99
ACCAGCCAAG,switch fluorescence ratio,1.07
TACTCCATTT,switch fluorescence ratio,1.03
AGCTTACAAT,switch fluorescence ratio,1.02
CTTCTCGTTT,switch fluorescence ratio,1.01
CAGACATCTT,switch fluorescence ratio,1.02
TTACGTTTGA,switch fluorescence ratio,1.01
AACCTCGGGT,switch fluorescence ratio,1.01
ATTACACCTC,switch fluorescence ratio,1.06
AATCTGTG,switch fluorescence ratio,1.02
GTCACGGCTT,switch fluorescence ratio,1.04
GGTAATCGCT,switch fluorescence ratio,0.97
TGTTTCCGCT,switch fluorescence ratio,1.05
CAGTCTGAGT,switch fluorescence ratio,0.973
CAGAACTTGC,switch fluorescence ratio,1.07
TGCTCTTGGG,switch fluorescence ratio,1
TTGCTAGGCA,switch fluorescence ratio,1
GGGCAGTCTT,switch fluorescence ratio,1.03
GGTCGGCCTG,switch fluorescence ratio,0.967
GATGCATGCC,switch fluorescence ratio,1.04
TGACCGTTTG,switch fluorescence ratio,1.01
GAGCGGGGAA,switch fluorescence ratio,0.989
TCCGGGGGCC,switch fluorescence ratio,1
GATCGCTATT,switch fluorescence ratio,1.16
AATATTATCA,switch fluorescence ratio,1.01
TTTAGTGGGA,switch fluorescence ratio,1
TTCGATGTCT,switch fluorescence ratio,1.01
GGTCGATAGG,switch fluorescence ratio,0.996
AAAGACGTTG,switch fluorescence ratio,0.996
GCGCCCTTTT,switch fluorescence ratio,1.75
TAAGGTTAGC,switch fluorescence ratio,1
GTTGCGCCT,switch fluorescence ratio,1.03
CATAGGAGCG,switch fluorescence ratio,1.04
GTTAATCATA,switch fluorescence ratio,0.979
TCGCCGATCC,switch fluorescence ratio,1.01
CCCTAAACGA,switch fluorescence ratio,1.02
GGCCCTGAGT,switch fluorescence ratio,1.02
TGCGTCAGCT,switch fluorescence ratio,0.93
GCCTCGATAG,switch fluorescence ratio,1.03
AAAATGGATC,switch fluorescence ratio,1.07
TGGTAAGGCA,switch fluorescence ratio,1.03
TGTGCTCATG,switch fluorescence ratio,1.03
TAAGTAGCA,switch fluorescence ratio,1.03
CAACTCCGTG,switch fluorescence ratio,1.13
GAATTGGGGT,switch fluorescence ratio,1.03
CTCGCGGTTT,switch fluorescence ratio,1.01
CGCAGCAAAG,switch fluorescence ratio,3.31
TCGGGAGGTA,switch fluorescence ratio,0.983
TCTAAGGACA,switch fluorescence ratio,1
CGTGCCGATG,switch fluorescence ratio,1
TTTCTAACGG,switch fluorescence ratio,1.03
GTTGAAAGG,switch fluorescence ratio,0.991
GGTGGGAGGT,switch fluorescence ratio,1.02
GACTATGTAA,switch fluorescence ratio,1.02
CCACTTGGAA,switch fluorescence ratio,0.931
GGTGTCGTAT,switch fluorescence ratio,1.09
GTAAGTGTCC,switch fluorescence ratio,0.995
GATAGGATAA,switch fluorescence ratio,1.01
AAAAATTAGC,switch fluorescence ratio,0.95
TCCCAGTCTC,switch fluorescence ratio,1.05
ACAGACTAAG,switch fluorescence ratio,1.09
ATTACCCCAT,switch fluorescence ratio,1.07
AGGAAATTAG,switch fluorescence ratio,0.986
AGTAAGCCGT,switch fluorescence ratio,0.861
CCTTAAGTGC,switch fluorescence ratio,1.46
